B1: ilvD I36Q (protein)
chain: MPKYRSATTTHGRNMAGARALWRATGMTDADFGKPQIAVVNSFTQFVPGHVHLRDLGKLVAEQIEAAGGVAKEFNTIAVDDGIAMGHGGMLYSLPSRELIADSVEYMVNAHCADAMVCISNCDKITPGMLMASLRLNIPVIFVSGGPMEAGKTKLSDQIIKLDLVDAMIQGADPKVSDSQSDQVERSACPTCGSCSGMFTANSMNCLTEALGLSQPGNGSLLATHADRKQLFLNAGKRIVELTKRYYEQNDESALPRNIASKAAFENAMTLDIAMGGSTNTVLHLLAAAQEAEIDFTMSDIDKLSRKVPQLCKVAPSTQKYHMEDVHRAGGVIGILGELDRAGLLNRDVKNVLGLTLPQTLEQYDVMLTQDDAVKNMFRAGPAGIRTTQAFSQDCRWDTLDDDRANGCIRSLEHAYSKDGGLAVLYGNFAENGCIVKTAGVDDSILKFTGPAKVYESQDDAVEAILGGKVVAGDVVVIRYEGPKGGPGMQEMLYPTSFLKSMGLGKACALITDGRFSGGTSGLSIGHVSPEAASGGSIGLIEDGDLIAIDIPNRGIQLQVSDAELAARREAQDARGDKAWTPKNRERQVSFALRAYASLATSADKGAVRDKSKLGG
B2: ilvD F43P (protein)
chain: B1 chain with Q36I, F43P
B3: ilvD I37P (protein)
chain: B1 chain with Q36I, I37P
B4: ilvD I37W (protein)
chain: B1 chain with Q36I, I37W
B5: ilvD I37A (protein)
chain: B1 chain with Q36I, I37A
B6: ilvD I36P (protein)
chain: B1 chain with Q36P
B7: ilvD F43Q (protein)
chain: B1 chain with Q36I, F43Q
B8: ilvE V51A (protein)
chain: MTTKKADYIWFNGEMVRWEDAKVHVMSHALHYGTSVFEGIRCYDSHKGPVAFRHREHMQRLHDSAKIYRFPVSQSIDELMEACRDVIRKNNLTSAYIRPLIFVGDVGMGVNPPAGYSTDVIIAAFPWGAYLGAEALEQGIDAMVSSWNRAAPNTIPTAAKAGGNYLSSLLVGSEARRHGYQEGIALDVNGYISEGAGENLFEVKDGVLFTPPFTSSALPGITRDAIIKLAKELGIEVREQVLSRESLYLADEVFMSGTAAEITPVRSVDGIQVGEGRCGPVTKRIQQAFFGLFTGETEDKWGWLDQVNQ
B9: ilvE V51W (protein)
chain: B8 chain with A51W
B10: ilvE F52W (protein)
chain: B8 chain with A51V, F52W

Positions count from the first letter of the chain named. In names and notes the source's numbering stands. ± gives the standard deviation of the averaged measurements. Laboratory Escherichia coli strains with one amino-acid change in an essential protein, pooled on minimal glucose agar with carbenicillin or gentamicin at twice the control MIC (plus kanamycin and chloramphenicol for the plasmids), 48 h. Fold change of barcode share against drug-free plates; higher = less susceptible. Active = above 20 in both replicates (the paper's putatively resistant). '<' = one read or none on drug, '>' = one read or none on a drug-free plate. Shares are relative, so most strains fall below 1 when a few take over. Listed are strains with at least 15 reads on both drug-free plates, and hits; most hits rest on fewer reference reads. Replicate rank correlation about 0.5. Edits are read from barcodes.

The first data set deals with Escherichia coli (laboratory strain). The experiment in a line: barcode share on antibiotic plates over drug-free plates; higher = less susceptible. The settings on record: antibiotic: carbenicillin; 2× MIC (3.1 µg/mL). How it is done:
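A pool of E. coli strains, each edited to carry one amino-acid change in an essential protein, was grown for 48 h on minimal glucose agar with or without antibiotic; strain barcodes were sequenced; mean of two replicates.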
As to B1, the “fold change of barcode share” value turned out to be 2.1 ± 0.83.
For the protein B2, the “fold change of barcode share” value was > 37.3 [active].
Regarding B3, the “fold change of barcode share” value is > 54.1 [active].
Take B4: the “fold change of barcode share” value is 29.6 [active].
Still for that read-out and setting: under B5 stands 2.25 ± 1.2; under B6, > 52.7 [active]; under B7, > 32.6 [active].
Turning to B8, the “fold change of barcode share” value is 0.254 ± 0.033.
B9: the “fold change of barcode share” value turned out to be 0.307 ± 0.17.
In the case of B10, the “fold change of barcode share” value stood at 0.706 ± 0.43.

The same data set, now with this note: antibiotic: gentamicin; 2× MIC (MIC 0.45 µg/mL).
Turning to B1, the “fold change of barcode share” value is 0.0402 ± 0.005.
In the case of B8, the “fold change of barcode share” value came out at 0.0101 ± 0.0067.
On to B9, for which the “fold change of barcode share” value was under 0.0116.
Regarding B10, the “fold change of barcode share” value is under 0.00345.

The values above are taken from the supplement of paper PMC11876631.
